# Data: the supplement of paper PMC3334620
# Over roughly 33,000 sequences, “E-score (-0.5 to 0.5)” has its median near -0.053; the highest 2% begin near 0.37. Some of the results follow.
# Target: Hap1 (UniProt P0CE41)
# Test: PBM E-score (8-mer binding enrichment) (E-score (-0.5 to 0.5)); higher = stronger / more preferred TF binding; most listed sequences are background and not binding sites
# Conditions: protein concentration: 200 nM; construct: GST-DNA-binding domain
# Method: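 Universal 'all 10-mer' protein binding microarrays (Agilent AMADID 015681) probed with GST-tagged S. cerevisiae TFs (full-length or DBD) made by in vitro transcription/translation (PURExpress), about 100-200 nM. Bound TF was detected with fluorescent anti-GST. Each ungapped 8-mer (which stands for itself and its reverse complement) is scored by the PBM enrichment score (E-score), a modified Wilcoxon-Mann-Whitney statistic from -0.5 to +0.5, computed with the Universal PBM Analysis Suite. Scale: above 0.35 generally sequence-specific binding.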
# UniProt P0CE41, sequence (P0CE41 whole entry): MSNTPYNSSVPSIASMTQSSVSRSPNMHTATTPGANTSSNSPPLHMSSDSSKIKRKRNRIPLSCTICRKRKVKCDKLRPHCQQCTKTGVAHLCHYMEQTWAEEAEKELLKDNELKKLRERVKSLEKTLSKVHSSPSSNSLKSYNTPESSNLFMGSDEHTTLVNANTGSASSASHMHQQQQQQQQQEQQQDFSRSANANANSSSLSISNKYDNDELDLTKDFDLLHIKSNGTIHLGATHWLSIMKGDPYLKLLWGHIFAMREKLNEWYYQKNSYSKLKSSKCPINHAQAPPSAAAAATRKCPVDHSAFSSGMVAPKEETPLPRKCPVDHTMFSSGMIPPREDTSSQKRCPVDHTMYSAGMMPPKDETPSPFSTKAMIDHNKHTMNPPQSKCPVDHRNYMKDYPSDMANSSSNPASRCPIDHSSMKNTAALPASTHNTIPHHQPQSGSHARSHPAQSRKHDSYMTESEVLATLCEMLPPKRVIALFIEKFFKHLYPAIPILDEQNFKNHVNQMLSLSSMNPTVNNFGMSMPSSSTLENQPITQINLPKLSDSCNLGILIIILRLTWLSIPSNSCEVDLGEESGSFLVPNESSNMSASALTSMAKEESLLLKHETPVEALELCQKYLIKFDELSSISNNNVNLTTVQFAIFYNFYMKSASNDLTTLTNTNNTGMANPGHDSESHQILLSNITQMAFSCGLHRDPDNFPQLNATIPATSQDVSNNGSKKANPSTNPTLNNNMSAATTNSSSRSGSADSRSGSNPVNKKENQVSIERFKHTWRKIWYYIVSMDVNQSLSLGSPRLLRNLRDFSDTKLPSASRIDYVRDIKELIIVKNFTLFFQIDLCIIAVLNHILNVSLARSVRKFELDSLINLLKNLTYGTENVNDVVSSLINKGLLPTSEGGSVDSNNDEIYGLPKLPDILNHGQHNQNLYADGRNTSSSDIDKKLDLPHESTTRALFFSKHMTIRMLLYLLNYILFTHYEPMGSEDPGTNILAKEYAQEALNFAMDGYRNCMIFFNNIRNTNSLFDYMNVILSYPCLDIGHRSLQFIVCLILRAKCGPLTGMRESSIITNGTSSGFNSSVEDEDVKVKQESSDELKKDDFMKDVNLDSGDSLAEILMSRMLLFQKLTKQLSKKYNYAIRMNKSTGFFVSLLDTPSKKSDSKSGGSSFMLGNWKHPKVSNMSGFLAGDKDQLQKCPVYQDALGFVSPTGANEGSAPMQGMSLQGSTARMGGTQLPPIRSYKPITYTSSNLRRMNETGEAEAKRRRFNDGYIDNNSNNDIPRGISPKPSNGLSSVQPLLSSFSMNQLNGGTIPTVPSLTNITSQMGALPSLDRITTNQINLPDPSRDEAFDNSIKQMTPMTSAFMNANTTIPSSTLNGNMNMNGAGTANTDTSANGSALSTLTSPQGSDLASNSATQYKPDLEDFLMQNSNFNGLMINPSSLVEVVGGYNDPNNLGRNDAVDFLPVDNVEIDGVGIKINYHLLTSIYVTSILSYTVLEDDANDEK
row,Sequence,PBM E-score
1,CGAAATTC,0.214
2,AAGTACCT,-0.267
3,ACGATCAC,-0.09
4,ATGCTGGC,-0.24
5,AATAGCCC,0.0355
6,ATTGGTTA,-0.094
7,CGGAAATA,0.487
8,AACTGCTT,-0.134
9,ACGCCGCG,0.202
10,TACGCGGA,0.241
11,CCCTAGAA,-0.196
12,CAGAACGG,0.0275
13,ACACGTAT,-0.0907
14,CGTCCCGA,0.178
15,CTACCGAC,0.107
16,GCCCAGCC,-0.109
17,AAAACGGT,-0.0685
18,ATTTTGAC,-0.0308
19,ACTGATCC,-0.112
20,AACCACCC,0.0463
21,GACTATAA,0.0711
22,CTGAAACC,0.0448
23,GCAAAACC,0.12
24,AAACAAAT,-0.00696
25,CAATTACG,-0.106

row,Sequence,PBM E-score
1,AATCACAG,-0.287
2,AAGGGGAG,-0.0496
3,CGGGTAGA,0.101
4,CATCACCA,-0.216
5,ATTTGCGA,-0.13
6,CCTCCACG,-0.214
7,CTGCAGTA,-0.234
8,TCTAAAAA,-0.129
9,ACCTTTTC,-0.304
10,GTTTGACA,-0.16
11,CCCGCCGC,0.195
12,TGAAAGAA,-0.223
13,AGATCCGG,0.384
14,CCATGTTC,0.0515
15,AAAAGAAT,0.0535
16,GACGCGAA,0.0133
17,ACGCACGT,0.0387
18,ACGATAGA,-0.099
19,ACATAACG,0.168
20,CCCCGTGC,0.269
21,CCTTTATA,-0.133
22,TACGACAA,-0.135
23,CGCGTACC,-0.106
24,ACCACTCC,0.215
25,AGAAGATG,-0.166

row,Sequence,PBM E-score
1,ACAGGTAT,-0.138
2,AGCCTTTA,-0.0851
3,GTGCGAAC,0.0112
4,ATCGCGGA,0.192
5,CTACAGTC,-0.163
6,CCGGCGCG,0.292
7,TATGTAAA,-0.0349
8,ATCATCAG,-0.101
9,AGTATCAA,-0.0862
10,CCGCTTCG,0.154
11,AACAAGCA,-0.0379
12,CGGTTGGA,0.078
13,ATTGCAGG,-0.081
14,AGATGGTG,-0.25
15,ATTGAAAT,0.014
16,TTTACAAA,-0.206
17,GGTGGGCA,-0.252
18,CCACTACG,-0.0463
19,AAACGTCA,-0.183
20,ATTCGGTC,0.249
21,GAGACAGA,-0.103
22,CAACGCGA,-0.00276
23,ACGGACGC,0.235
24,ACCGCGCA,0.115
25,GTTGGCCA,-0.0486

row,Sequence,PBM E-score
1,GAACGAGA,0.00175
2,GATATTTA,0.2
3,CGTCAACC,-0.0449
4,TAGTTGCA,0.0573
5,CAGGGAGG,-0.254
6,CCACGACA,0.02
7,ACGCTGGA,-0.0302
8,CTGTTATC,0.0682
9,ACCTCATG,-0.392
10,GCCGCAGC,0.0353
11,GGAGAATA,0.164
12,CAGAAGCG,0.0711
13,CGTGCGGC,0.119
14,GTTTTAAA,-0.0504
15,GCGGGTGA,0.188
16,GTAATTAC,0.149
17,GTGTCCAA,-0.18
18,ACCGTAGC,0.0783
19,GCACTAAC,-0.0203
20,GAAAGGGA,-0.0702
21,AGCGGCTG,-0.0298
22,AATTTTGT,0.0644
23,AGCACGAC,-0.133
24,AATTCAGC,-0.0646
25,ATCCTGGC,-0.0945

row,Sequence,PBM E-score
1,CACAGTCC,0.01
2,CTGTGCTC,-0.0438
3,GAACTCAA,-0.0607
4,CCCCGCCA,0.16
5,AGTATGCG,-0.051
6,CAGTTATG,-0.153
7,AGGCGTCG,0.0787
8,AACGTGCT,-0.233
9,AAATAATA,0.0534
10,GCACCCGA,0.206
11,AGACTTAT,-0.244
12,ACCAACGG,0.191
13,AGCGGTTG,0.0117
14,CGGCAGAC,0.14
15,AGCAGGGG,-0.191
16,ATGGTGCC,-0.0292
17,GTGACAAA,-0.129
18,GGACCCGA,0.323
19,TAAATACA,-0.0923
20,TCGTGAAA,-0.0943
21,AACTCTCG,-0.0162
22,GGACTTTA,0.307
23,TGTGCTAA,0.176
24,AACCTTAG,-0.087
25,TACTTACA,-0.231

row,Sequence,PBM E-score
1,TAATGAAA,-0.277
2,CAGGCGAG,-0.262
3,AGGACATC,0.0821
4,ATGGTGGG,-0.266
5,CGCGCAGA,0.148
6,GTTCAAGA,-0.165
7,GCCTACCC,-0.143
8,ATCGGAAA,0.426
9,GCCCTACC,-0.0795
10,CCGCCGTC,0.151
11,ATGGAGCA,-0.0564
12,AACTCCTC,0.00689
13,GCGGCATA,0.1
14,CGACTTGA,-0.0543
15,TGACAGCA,-0.223
16,ACGACGTG,-0.305
17,CACACTAG,-0.116
18,GGCTACAA,-0.141
19,ACGAATGA,-0.0426
20,AATCGGAC,0.345
21,CCACTGTA,-0.126
22,ACTGAGCG,-0.284
23,GGCGTGAA,-0.0737
24,CAGCGGCA,-0.18
25,GCGTATCA,-0.212

row,Sequence,PBM E-score
1,AAGTCCAC,-0.127
2,ACCAGTGA,-0.18
3,GAATTGAA,0.0222
4,CTAGCCTC,-0.169
5,ACAGGCTG,-0.256
6,ACGGGAAA,0.174
7,GACAAGGC,-0.0204
8,AATAACTG,-0.026
9,GCTCGAGC,0.0114
10,CTATTTCC,0.397
11,CAGACTGA,-0.154
12,CACACCCC,-0.0788
13,ACATACGT,-0.0308
14,ATAGGTCA,-0.165
15,AGGGGGTG,-0.127
16,CGCCTGAA,0.0154
17,GAATTTAC,0.0854
18,ACAATGAC,-0.202
19,ACCCAAAA,-0.191
20,CAAGGCAA,-0.144
21,GGTACGTA,-0.0499
22,TATATACA,-0.0688
23,ACCCGGCG,0.283
24,AGCAGACT,-0.29
25,CCATATCC,0.181

row,Sequence,PBM E-score
1,AGGGCGAT,-0.196
2,GCCTTCGC,0.103
3,CGTGCGAA,0.015
4,ACCGCAGG,0.0978
5,AACTTCTT,-0.111
6,CATGTGAC,-0.349
7,AACATAGA,-0.083
8,ACGCGAAT,-0.0518
9,GGACTAGA,0.0886
10,ACATGTAT,-0.0134
11,CGCCCTCA,-0.149
12,CGCAAGCA,-0.0513
13,AGATGACC,0.0404
14,ATGAAGGC,-0.0409
15,CTTAACCA,-0.28
16,TAAACGAA,-0.0006
17,TATTAACA,0.0726
18,AGAAGTGG,-0.0623
19,CACGATGG,-0.207
20,AATGCGAG,-0.12
21,AGTCGGTG,0.156
22,GCACCTAA,-0.0548
23,AAGGTAAA,-0.119
24,CGCGTCGC,-0.0882
25,ACCATTAT,-0.0869

row,Sequence,PBM E-score
1,TGACATAA,-0.0779
2,AACAATCT,-0.133
3,ACCTAACT,0.0611
4,AGGTGAAC,-0.12
5,GAATCCGA,0.307
6,GATGTGGA,0.14
7,CTTCGTAC,-0.105
8,CCTCAACG,-0.133
9,GACCCCCA,-0.129
10,ATCATTCC,0.216
11,CTACAAAC,-0.247
12,AATCTCGC,0.0134
13,CAGCATTA,-0.0607
14,AAGCACAA,-0.193
15,CTAGCCAG,-0.186
16,GGCTATAC,0.059
17,AACTTTTG,-0.0532
18,GCAATTAA,0.227
19,AAGGAGAG,-0.277
